Experimental data as given in paper PMC7819943, “Rice protein-binding microarrays: a tool to detect cis-acting elements near promoter regions in rice”.
Some of the results follow.

What follows are sequences tested against T1, OsWOX13 (Oryza sativa, UniProt Q5QMM3 1-267) (assay: protein-binding microarray (RPBM); PBS, 2% BSA, 51.3 ng/ul salmon testes DNA, 50 uM zinc acetate, 200 nM TF, 25 C, 1 h; high values mean tight binding). Conditions: protein: recombinant; tags: N-terminal polyhistidine and DsRed monomer fusion (pET32a); label: CyDye5-dUTP incorporated in the synthesized complementary strand; 3' TTTTT single-stranded linker to array surface; dsDNA, one strand shown.
T1 sequence: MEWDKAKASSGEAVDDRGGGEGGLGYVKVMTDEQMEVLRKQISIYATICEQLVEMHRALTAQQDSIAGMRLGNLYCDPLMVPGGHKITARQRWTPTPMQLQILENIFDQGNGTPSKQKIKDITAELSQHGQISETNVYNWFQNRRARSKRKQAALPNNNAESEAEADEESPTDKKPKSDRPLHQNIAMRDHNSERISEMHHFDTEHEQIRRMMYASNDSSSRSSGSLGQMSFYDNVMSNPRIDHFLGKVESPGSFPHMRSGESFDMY
Outline: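 For the binding signal, per-feature fluorescence intensity was read in arbitrary units on an Axon 4000B scanner. Before scanning, a 2% BSA-blocked custom Agilent array made double-stranded with Cy5-dUTP was washed after 1 h at 25 °C with 200 nM protein and 50 µM zinc acetate. The proteins were Ni–NTA-purified transcription factors with N-terminal polyhistidine and DsRed fusions, expressed in E. coli BL21-CodonPlus.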

Row | Sequence | binding signal
1 | GTGTGATGAACTCAAAACACAATCAAGTATACTTGTGTGACGGAGTCACCTAGTGCAG | 5600 fluorescence intensity (a.u.)
2 | ATCTTATCGTACTAATTTATCTTAATACAGTGTAATAAACCGGAGTCACCTAGTGCAG | 4030 fluorescence intensity (a.u.)
3 | TACACTATAATTACATGCTATTTACATATGTAATTTTAGACGGAGTCACCTAGTGCAG | 7070 fluorescence intensity (a.u.)
4 | TCATAACTAATATTTAAATGGTATTTGAACATCCCATGGACGGAGTCACCTAGTGCAG | 9720 fluorescence intensity (a.u.)
5 | CACAAGATAATGATTGGTGATAAACTCTTGTGCATCCAAACGGAGTCACCTAGTGCAG | 28100 fluorescence intensity (a.u.)
6 | CCTACGAATGTCCTTAATTAGTGAGGACACTTTAGAAGTGCGGAGTCACCTAGTGCAG | 4430 fluorescence intensity (a.u.)
7 | ACGTTATTTATTGTTTTAGGTTCAATCTACGAGTTTCTTTCGGAGTCACCTAGTGCAG | 3350 fluorescence intensity (a.u.)
8 | ACCCCTTAATTCTTAAAATTTTAAGCTCTTCGAAATAGTTCGGAGTCACCTAGTGCAG | 4080 fluorescence intensity (a.u.)
9 | CCTGACCCCACCAATCAGAGCATTTCCCGCGCAATACACACGGAGTCACCTAGTGCAG | 5860 fluorescence intensity (a.u.)
10 | TAAGCTAATTGGTGAAAATATTTTGACTTTTAGTTTATTTCGGAGTCACCTAGTGCAG | 20600 fluorescence intensity (a.u.)
11 | ATTAATGAATCTAGATAGATATATATGTCTAGATTTATTACGGAGTCACCTAGTGCAG | 7480 fluorescence intensity (a.u.)
12 | ATCAATTAGCATAAATTCATTGATGACTTTCGGTGCAAAGCGGAGTCACCTAGTGCAG | 13700 fluorescence intensity (a.u.)
13 | ATAGATTATCTTATATATTATAATAAGATTTCATGGTAAGCGGAGTCACCTAGTGCAG | 11800 fluorescence intensity (a.u.)
14 | ATCAGATTTATTGTATTTATTTCTCTTTATTTCTCCACATCGGAGTCACCTAGTGCAG | 4710 fluorescence intensity (a.u.)
15 | TTTAATTTATTTCCTCATTATATTAATATTAAAACTGAGTCGGAGTCACCTAGTGCAG | 33700 fluorescence intensity (a.u.)
16 | CTGAAAACGATTGCAAAATTGACTCGAGTAGTTTTGTATGCGGAGTCACCTAGTGCAG | 7400 fluorescence intensity (a.u.)
17 | ATGCTAGCAATGCTGATTGGCCCCGTCAAGCAAGTGACACCGGAGTCACCTAGTGCAG | 13800 fluorescence intensity (a.u.)
18 | AATTAATTAATCTGAATGCTCTTTACACACGAGATGTCTGCGGAGTCACCTAGTGCAG | 31000 fluorescence intensity (a.u.)
19 | CCAAATTTTGAGTATTATTAACTCAAATTTTAAACCACATCGGAGTCACCTAGTGCAG | 5680 fluorescence intensity (a.u.)
20 | GTTTGTTGATGTTATTTCTTGGATTGAGGCGTTTGTCAATCGGAGTCACCTAGTGCAG | 4770 fluorescence intensity (a.u.)
21 | TTGTCAATTTGCCACCAGCGTCAAATGTTTGTCCATGACCCGGAGTCACCTAGTGCAG | 3740 fluorescence intensity (a.u.)

Row | Sequence | binding signal
22 | AAGTTGACGAGGCTTGTGAATGATCGGCTTCTGGAAAGCGCGGAGTCACCTAGTGCAG | 6330 fluorescence intensity (a.u.)
23 | ATGTGATTGCGAATTGTGACCAGGAATGCATGATTTAACACGGAGTCACCTAGTGCAG | 22200 fluorescence intensity (a.u.)
24 | CAAACTTCTAATTTTAACGTAAGTTAAACACTCCCCAAGTCGGAGTCACCTAGTGCAG | 3610 fluorescence intensity (a.u.)
25 | AAAATTGAGTAGATAACTTACGACGATAATCCAAATCAAACGGAGTCACCTAGTGCAG | 5580 fluorescence intensity (a.u.)
26 | ACTAATTGTATAATTTGCATGGAAATCGCGAGATGAATCTCGGAGTCACCTAGTGCAG | 44400 fluorescence intensity (a.u.)
27 | CACACATAATTTCTGGCAAGACAACGCATTAATCGGGAGCCGGAGTCACCTAGTGCAG | 5750 fluorescence intensity (a.u.)
28 | AAATGATGAAGAAATTAATTGGCGATTGTTGTGATCAGTTCGGAGTCACCTAGTGCAG | 36800 fluorescence intensity (a.u.)
29 | CCCAAATTATAAATCACCTCGTAATTTCTCGCTTAATTATCGGAGTCACCTAGTGCAG | 30900 fluorescence intensity (a.u.)
30 | TGTCCTCCTGCTCCTGATTGGATCGGTAGAAAGGTGGCGGCGGAGTCACCTAGTGCAG | 11000 fluorescence intensity (a.u.)
31 | TGTTCGATATGATCTTAATTAGCCAATGGATGCTGAGAGCCGGAGTCACCTAGTGCAG | 4720 fluorescence intensity (a.u.)
32 | CTAAACATACAAACTTCTAACTTTTCCGTCACATCGTTCCCGGAGTCACCTAGTGCAG | 3430 fluorescence intensity (a.u.)
33 | CCATGCTTTGTCAAGTTATGATTTGTTGGAATTTTCCCAACGGAGTCACCTAGTGCAG | 3270 fluorescence intensity (a.u.)
34 | TACCAATCTATAAATATATTCTATACCACATACAATCCAGCGGAGTCACCTAGTGCAG | 3520 fluorescence intensity (a.u.)
35 | TAGCTAATTTCAACTAATCTCAATCAGTGACAACTTTTATCGGAGTCACCTAGTGCAG | 10700 fluorescence intensity (a.u.)
36 | GACTTAACTGGGTGTGTTTTGAGAGCTTGGATTTTATCCTCGGAGTCACCTAGTGCAG | 6150 fluorescence intensity (a.u.)
37 | ATAGATTTGATCATCAGTTGACACGTGCTATATACTCCCTCGGAGTCACCTAGTGCAG | 25700 fluorescence intensity (a.u.)
38 | CTGTTAATTAATCGTCTAATCATAAGTTCAGTGCTCGTATCGGAGTCACCTAGTGCAG | 29000 fluorescence intensity (a.u.)
39 | AGTTTGATTACTTGGCCTCAGTACTAAAAGTTACTCAGTACGGAGTCACCTAGTGCAG | 16400 fluorescence intensity (a.u.)
40 | TTGACAATTAAAGGACATTTGTATCTGGTATTTTGGTTCGCGGAGTCACCTAGTGCAG | 4200 fluorescence intensity (a.u.)
41 | CTAAACTGATCTAAATGAGAAGCTATGAGTGACCAAACAGCGGAGTCACCTAGTGCAG | 33600 fluorescence intensity (a.u.)
42 | TTAGATTAATTTATTCTGAAACGGATAGGACGAATGGAGTCGGAGTCACCTAGTGCAG | 41700 fluorescence intensity (a.u.)
